# Measurements from the supplement of paper PMC8728848.
# The list shows a part of the results.
# B1: B1257 (Bifidobacterium sp) (protein)
# chain: MKKSIRLVAAIAALAMTAGISACGSSTNGNQAKSDVTAQDVETALTDTSKNVELTVWAYSAKQMEPTVKAFEKKYPHIKINFVNTGAAGDHFTKFQNVVQAQKDIPDVVQMGANKFQQFAVSGALLNFANDSIEKAWSKLYTKTAWAQVHYAGGLYGAPQDATPLANYVRKDILDEHNLQVPESWEDIYNEGIKLHKEDSNKYMGILGSDISFFTNLYRSVGARLWKVNSVDDVELTMNSGKAKEFTEFLQKCLKDGVLEGGTVFTDEFNRSINDGRYATFINENWMGNTYKEQNPSLKGKMVVAAPPSWKGQPYQSSSVGSMMSVSAACPKEKQAAALAFINWLDSDKDAIQSWQDTNNGNFFMAASVYQDDENQRNKKETDGYYANDDVNAVYFDSMDKVNTDWEYLPFMSQVEVVFNDVIVPQMNENGDLVGAMAKAQQELKTYAKDNGFKVTTDAD
# Assays:
# Test in all cases: glycan array binding signal (z-score within array); higher = stronger binding
# Details in all cases: glycan notation: IUPAC condensed, linker removed
# [1] = biological target: Gal3S(b1-4)Glc
# Summary of the method: (§1)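 From the Consortium for Functional Glycomics database, 3228 arrays were curated, keeping only those whose protein sequence was available. Binding is given as a within-array Z-score averaged across arrays sharing a protein sequence and across linkers. Negative Z-scores can be read as non-binding.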
# [2] = biological target: Gal3S(b1-4)Glc6S
# Summary of the method: as §1
# [3] = biological target: Gal3S(b1-4)GlcNAc
# Summary of the method: as §1
# [4] = biological target: Gal3S(b1-4)[Fuc(a1-3)]Glc6S
# Summary of the method: as §1
# [5] = biological target: Gal3S(b1-4)[Fuc(a1-3)]GlcNAc
# Summary of the method: as §1
# [6] = biological target: Gal3S(b1-4)[Fuc(a1-3)]GlcNAc6S
# Summary of the method: as §1
# [7] = biological target: Gal3S4S(b1-4)GlcNAc
# Summary of the method: as §1
# [8] = biological target: Gal3S6S(b1-4)GlcNAc
# Summary of the method: as §1
# [9] = biological target: Gal3S6S(b1-4)GlcNAc6S
# Summary of the method: as §1
# [10] = biological target: Gal4S(b1-4)GlcNAc
# Summary of the method: as §1
# [11] = biological target: Gal4S6S(b1-4)GlcNAc
# Summary of the method: as §1
# [12] = biological target: Gal6P(b1-4)GlcNAc
# Summary of the method: as §1
# [13] = biological target: Gal6S(b1-3)GlcNAc
# Summary of the method: as §1
# [14] = biological target: Gal6S(b1-3)GlcNAc6S
# Summary of the method: as §1
# [15] = biological target: Gal6S(b1-4)Glc
# Summary of the method: as §1
# [16] = biological target: Gal6S(b1-4)Glc6S
# Summary of the method: as §1
# [17] = biological target: Gal6S(b1-4)GlcNAc
# Summary of the method: as §1
# [18] = biological target: Gal6S(b1-4)GlcNAc6S
# Summary of the method: as §1
# [19] = biological target: GalNAc(a1-3)Gal
# Summary of the method: as §1
# [20] = biological target: GalNAc(a1-3)GalNAc
# Summary of the method: as §1
# [21] = biological target: GalNAc(a1-3)GalNAc(b1-3)Gal(a1-4)Gal(b1-4)Glc
# Summary of the method: as §1
# [22] = biological target: GalNAc(a1-3)GalNAc(b1-3)Gal(a1-4)Gal(b1-4)GlcNAc
# Summary of the method: as §1
# [23] = biological target: GalNAc(b1-3)Gal
# Summary of the method: as §1
# [24] = biological target: GalNAc(b1-3)Gal(a1-4)Gal(b1-4)GlcNAc
# Summary of the method: as §1
# [25] = biological target: GalNAc(b1-3)Gal(a1-4)Gal(b1-4)GlcNAc(b1-3)Gal(b1-4)Glc
# Summary of the method: as §1
# [26] = biological target: GalNAc(b1-3)Gal(a1-6)Gal(b1-4)Glc
# Summary of the method: as §1
# [27] = biological target: GalNAc(b1-3)GalNAc
# Summary of the method: as §1
# [28] = biological target: GalNAc(b1-3)GlcNAc
# Summary of the method: as §1
# [29] = biological target: GalNAc(b1-4)Gal(b1-4)Glc
# Summary of the method: as §1
# [30] = biological target: GalNAc(b1-4)GlcNAc
# Summary of the method: as §1
# [31] = biological target: GalNAc(b1-4)GlcNAc(b1-2)Man
# Summary of the method: as §1
# [32] = biological target: GalNAc(b1-4)GlcNAc(b1-2)Man(a1-3)[GalNAc(b1-4)GlcNAc(b1-2)Man(a1-6)]Man(b1-4)GlcNAc(b1-4)GlcNAc
# Summary of the method: as §1
# [33] = biological target: GalNAc(b1-4)GlcNAc(b1-3)GalNAc(b1-4)GlcNAc
# Summary of the method: as §1
# [34] = biological target: GalNAc(b1-4)GlcNAc6S
# Summary of the method: as §1
# [35] = biological target: GalNAc(b1-6)GalNAc
# Summary of the method: as §1
# [36] = biological target: GalNAc3S(b1-4)GlcNAc
# Summary of the method: as §1
# [37] = biological target: GalNAc3S(b1-4)GlcNAc3S
# Summary of the method: as §1
# [38] = biological target: GalNAc3S(b1-4)[Fuc(a1-3)]GlcNAc
# Summary of the method: as §1
# [39] = biological target: GalNAc4S6S(b1-4)GlcNAc
# Summary of the method: as §1
# [40] = biological target: GalNAc6S(b1-4)GlcNAc
# Summary of the method: as §1
# [41] = biological target: Glc(a1-4)Glc
# Summary of the method: as §1
# [42] = biological target: Glc(a1-4)Glc(a1-4)Glc(a1-4)Glc
# Summary of the method: as §1
# [43] = biological target: Glc(a1-6)Glc(a1-6)Glc
# Summary of the method: as §1
# [44] = biological target: Glc(a1-6)Glc(a1-6)Glc(a1-6)Glc
# Summary of the method: as §1
# [45] = biological target: Glc(b1-4)Glc
# Summary of the method: as §1
binder,measurement,setting,value
B1,glycan array binding signal (z-score),[1],0.004
same,glycan array binding signal (z-score),[2],-0.073
same,glycan array binding signal (z-score),[3],-0.091
same,glycan array binding signal (z-score),[4],0.213
same,glycan array binding signal (z-score),[5],-0.05
same,glycan array binding signal (z-score),[6],-0.09
same,glycan array binding signal (z-score),[7],0.083
same,glycan array binding signal (z-score),[8],-0.005
same,glycan array binding signal (z-score),[9],-0.09
same,glycan array binding signal (z-score),[10],-0.165
same,glycan array binding signal (z-score),[11],-0.216
same,glycan array binding signal (z-score),[12],-0.017
same,glycan array binding signal (z-score),[13],-0.061
same,glycan array binding signal (z-score),[14],-0.051
same,glycan array binding signal (z-score),[15],-0.065
same,glycan array binding signal (z-score),[16],-0.015
same,glycan array binding signal (z-score),[17],-0.16
same,glycan array binding signal (z-score),[18],-0.133
same,glycan array binding signal (z-score),[19],0.019
same,glycan array binding signal (z-score),[20],-0.155
same,glycan array binding signal (z-score),[21],-0.048
same,glycan array binding signal (z-score),[22],-0.089
same,glycan array binding signal (z-score),[23],-0.047
same,glycan array binding signal (z-score),[24],-0.087
same,glycan array binding signal (z-score),[25],-0.065
same,glycan array binding signal (z-score),[26],-0.117
same,glycan array binding signal (z-score),[27],-0.091
same,glycan array binding signal (z-score),[28],-0.223
same,glycan array binding signal (z-score),[29],-0.111
same,glycan array binding signal (z-score),[30],-0.065
same,glycan array binding signal (z-score),[31],-0.154
same,glycan array binding signal (z-score),[32],1.83
same,glycan array binding signal (z-score),[33],-0.085
same,glycan array binding signal (z-score),[34],-0.041
same,glycan array binding signal (z-score),[35],-0.048
same,glycan array binding signal (z-score),[36],-0.145
same,glycan array binding signal (z-score),[37],-0.117
same,glycan array binding signal (z-score),[38],-0.063
same,glycan array binding signal (z-score),[39],-0.106
same,glycan array binding signal (z-score),[40],-0.132
same,glycan array binding signal (z-score),[41],-0.017
same,glycan array binding signal (z-score),[42],-0.138
same,glycan array binding signal (z-score),[43],0.008
same,glycan array binding signal (z-score),[44],-0.037
same,glycan array binding signal (z-score),[45],-0.13
